Results reported in PubChem BioAssay AID2546 (National Center for Advancing Translational Sciences (NCATS), 2010).
In all, about 310,000 compounds went through this assay and about 11,000 (3.5%) were called active. Inconclusive means that the source gave no clear call. Such entries were picked first, then a sample of the others. Calls come from the whole dose curve; as a rule, active = well fitted inhibition curve with a large enough effect; inconclusive = small, poorly fitted or top-dose-only effect, or effect the other way; inactive = flat fitted curve, though single readings scatter. No potency is given beside an inconclusive call; the fits are too rough.
Potency is the fitted concentration of half-maximal effect; tags give direction and shape of the fitted curve.

Assay: VP16 counterscreen qHTS for inhibitors of ROR gamma transcriptional activity;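 note: Gal4-VP16 expression switched on by copper sulfate through the metallothionein promoter; nearly all actives have a fitted effect of over 50% in size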
Conditions: Drosophila S2 Gal4-VP16 UAS-luciferase, luminescence, 20 h; series mostly up to 53.6 µM
With `S=c1[nH]nc(-c2ccc(Cl)cc2Cl)n1-c1ccccc1` the Potency was inconclusive [inhibitor, single point]. In the case of `CCc1ccc(-c2nc(SCC(=O)NC3CCCC3)n[nH]2)cc1`, the Potency is reported as active: 14.1 µM. With `Cc1[nH]n(C(N)=S)c(=O)c1N=Nc1ccc(Cl)cc1Cl` the Potency was active: 2.82 µM. With `CCCNC(=O)N1CCN(c2nc(C(C)C)c3c(c2C#N)CC(C)(C)OC3)CC1` the Potency was inconclusive [inhibitor, single point]. For `CCC1Oc2ccc(C)cc2N(CC(=O)NCc2cccc(OC)c2)C1=O` (centres undefined), the Potency was active: 22.4 µM. With `CCOc1ccc(NC(=O)c2cnccn2)cc1` the Potency was inconclusive [inhibitor, partial curve]. In the case of `N#Cc1c(N2CCN(C(=O)c3ccco3)CC2)nc(-c2ccccc2)c2c1CCCC2`, the Potency is reported as inconclusive [inhibitor, single point]. With `O=[N+]([O-])c1ccc(/C=N\NS(=O)(=O)c2ccc(F)cc2)o1` the Potency was active: 14.1 µM. In the case of `COc1ccc(CCNC(=O)c2ccc3nc(N4CCCCC4)sc3c2)cc1OC`, the Potency is reported as inconclusive [inhibitor, partial curve, poor fit]. In the case of `COc1ccc(C2=NS(=O)(=O)N(C)C(C(=O)N3CCc4ccccc4C3)=C2)cc1OC`, the Potency is reported as inconclusive [inhibitor, single point]. In the case of `Fc1ccc(CNC(=S)Nc2ccccc2Cl)cc1`, the Potency is reported as inconclusive [inhibitor, single point]. With `COc1ccc2[nH]cc(CCNc3ncncc3-c3ccccc3C)c2c1` the Potency was inconclusive [inhibitor, single point]. With `O=C(/C=C/c1ccccc1)NCCc1ccc2c(c1)OCCO2` the Potency was inconclusive [activator, full curve, poor fit]. With `COc1cc(SC)ccc1C(=O)OC(C)C(=O)Nc1ccc(NC(C)=O)cc1` (centres undefined) the Potency was “inactive”. For `CC(C)CN(CCOc1cccc(N2C(=O)C3=C(CCCC3)C2=O)c1)CC(C)C`, the Potency was inconclusive [activator, single point]. In the case of `CSc1ccccc1OCc1cc(C(=O)N2CCC(Oc3cccnc3)CC2)no1`, the Potency is reported as inconclusive [inhibitor, single point]. For `Cc1ccccc1C(=O)NC1CCN(CC(=O)Nc2c(C)cccc2C)CC1`, the Potency was inconclusive [inhibitor, single point]. With `COCCCn1c(=NC(=O)c2ccccc2)c(C#N)cc2c(=O)n3cccc(C)c3nc21` the Potency was “inactive”. With `Cc1cc(Br)cnc1NC(=S)Nc1ccc(F)cc1F` the Potency was inconclusive [inhibitor, single point]. For `C/C(=N\Nc1ncc(Cl)cc1Cl)c1ccc(N2CCOCC2)cc1`, the Potency was inconclusive [inhibitor, single point]. For `COC(=O)CNC(=O)CN1C(=O)N(c2cccc(Cl)c2)C(N(O)C(=O)Nc2cccc(Cl)c2)C1(C)C` (centres undefined), the Potency was inconclusive [inhibitor, single point]. In the case of `CN(CC(=O)Nc1ccccc1Br)C(=O)CNC(=O)c1ccc(Oc2ccccc2)cc1`, the Potency is reported as inconclusive [inhibitor, single point]. For `COCCNC(=O)C(c1ccc(C)o1)N(C(=O)C(=O)NC1CCCCC1)c1ccc(F)cc1` (centres undefined), the Potency was inconclusive [inhibitor, single point]. With `O=C1CCCCC2CCCCN12` (centres undefined) the Potency was “inactive”. For `Cc1ccc(-n2c(CCc3ccccc3)n[nH]c2=S)cc1C`, the Potency was inconclusive [inhibitor, single point]. With `O=[N+]([O-])c1ccc(/C=N/n2cn[nH]c2=S)cc1` the Potency was inconclusive [inhibitor, single point]. With `S=c1[nH]ncn1/N=C/c1cccc(Oc2ccccc2)c1` the Potency was active: 7.08 µM. With `Cn1c(CNC(=O)C2CCCCC2)cc2cc(Cl)ccc21` the Potency was inconclusive [inhibitor, single point]. In the case of `COc1ccc(NC(=O)c2ccco2)cc1NC(=O)c1ccc(C#N)cc1F`, the Potency is reported as inconclusive [inhibitor, single point]. In the case of `CCCCCn1ccc(=O)c2c(C(F)(F)F)nccc21`, the Potency is reported as inconclusive [inhibitor, single point]. With `S=c1nc(NCc2ccc3c(c2)OCO3)c2ccccc2[nH]1` the Potency was inconclusive [inhibitor, single point]. In the case of `O=[N+]([O-])c1cc(C(F)(F)F)ccc1NCCCCNS(=O)(=O)c1ccc(Cl)cc1`, the Potency is reported as inconclusive [inhibitor, single point]. For `C=CCN(c1ccccc1)S(=O)(=O)c1cccc2cccnc12`, the Potency was “inactive”. With `Cn1cnc([N+](=O)[O-])c1Sc1ccc(C(C)(C)C)cc1` the Potency was inconclusive [inhibitor, single point]. In the case of `CCOc1nc2ccccc2cc1C=O`, the Potency is reported as “inactive”. For `S=C(Nc1ccc(Cl)cc1Cl)NC1CCN(Cc2ccccc2)CC1`, the Potency was inconclusive [inhibitor, single point]. For `CC(=O)Nc1ccccc1N(C)S(=O)(=O)c1ccc(C)cc1`, the Potency was inconclusive [inhibitor, single point]. For `Cc1cc(/C=N/NC(=O)c2cccs2)c(C)n1-c1ccccc1`, the Potency was inconclusive [inhibitor, single point]. For `Cn1c(-c2ccc3ccccc3n2)nc2cnccc21`, the Potency was inconclusive [inhibitor, single point]. For `CC1CC(=O)N(c2ccc(NCCc3ccccc3)c([N+](=O)[O-])c2)C1=O` (centres undefined), the Potency was “inactive”. In the case of `Cn1nnnc1Sc1ncnc2scc(-c3ccccc3)c12`, the Potency is reported as “inactive”. For `COc1ccc(-c2nc3cnc(N4CCNCC4)nc3n(Cc3cccc(OC)c3)c2=O)cc1`, the Potency was inconclusive [inhibitor, single point]. In the case of `COC(=O)[C@@H]1CC[C@H](C)[C@@H](c2ccc(C)cc2)N1C(=O)c1ccc(/C=N/O[C@@H](C)CN2CCCCc3nc(C)c(C)cc32)cc1`, the Potency is reported as active: 20 µM. With `COc1ccc2cc(/C=C/C(=O)c3ccco3)c(Cl)nc2c1` the Potency was inconclusive [inhibitor, full curve]. With `Cc1sc2ncnc(SCC(=O)N3CCCC3)c2c1C` the Potency was inconclusive [activator, partial curve, poor fit]. With `O=C(Nc1ccc2oc(=O)ccc2c1)c1cccnc1` the Potency was inconclusive [inhibitor, single point]. For `CCOC(=O)c1ccc(NC(=O)CNS(=O)(=O)c2ccccc2)cc1`, the Potency was inconclusive [inhibitor, full curve]. With `CN(C=O)CP(=O)(O)CN1CCCCC1` the Potency was inconclusive [inhibitor, single point]. With `Cc1ccc(C)c(OCC(=O)Nc2ccc(C(=O)O)cc2NC(=O)COc2cc(C)ccc2C)c1` the Potency was inconclusive [inhibitor, single point]. With `COc1ccc(NS(=O)(=O)c2c(C)cc(C)cc2C)cc1` the Potency was inconclusive [inhibitor, single point]. With `Cc1ccc(NC(=O)c2ccc3nsnc3c2)c(Cl)c1` the Potency was inconclusive [inhibitor, single point]. In the case of `COc1cccc(OCC(O)CN2CC(C)CC(C)C2)c1` (centres undefined), the Potency is reported as inconclusive [inhibitor, single point]. With `COc1cccc(OC)c1OCCCSc1nc(C)cc(=O)[nH]1` the Potency was inconclusive [inhibitor, single point]. For `NC(=S)N/N=C/c1c(O)c(Br)cc2oc3c(c12)CCCC3`, the Potency was inconclusive [inhibitor, single point]. In the case of `Cc1cc(N=Nc2ccc3ccccc3c2)ccc1O`, the Potency is reported as inconclusive [inhibitor, single point]. In the case of `COc1cc(-c2nc(-c3ccc(NC(=O)c4ccc5c(c4)OCO5)cc3)no2)cc(OC)c1OC`, the Potency is reported as inconclusive [inhibitor, single point]. For `O=C1OC(OC(=O)c2ccccc2Br)C(N2CCOCC2)=C1Cl` (centres undefined), the Potency was inconclusive [inhibitor, single point]. For `Cc1ccnc(SCC(=O)Nc2sc3c(c2C#N)CCC(C(C)(C)C)C3)n1` (centres undefined), the Potency was “inactive”. With `CCCCN(C(=O)c1cccc(S(=O)(=O)N2CCN(Cc3ccccc3)CC2)c1)c1ccccc1` the Potency was “inactive”. With `O=C(CN1CCCc2ccccc21)N/N=C/c1ccccc1O` the Potency was active: 0.316 µM. In the case of `COc1ccc(CN2CSC(=S)N(Cc3ccc(OC)cc3)C2)cc1`, the Potency is reported as active: 17.8 µM. In the case of `COc1cccc(NC(=S)N(Cc2ccccn2)Cc2ccccc2Cl)c1`, the Potency is reported as inconclusive [inhibitor, single point]. For `COc1ccc(/C=c2\sc3nc(-c4ccccc4OC)nn3c2=O)c(OC)c1`, the Potency was inconclusive [inhibitor, single point]. In the case of `CCOC(=O)SC1=N/C(=C\c2ccc(N(C)C)cc2)C(=O)S1`, the Potency is reported as inconclusive [inhibitor, single point]. For `Cc1ccc(S/C=C\C(=O)c2ccccc2)cc1`, the Potency was active: 14.1 µM. In the case of `CCCn1nc(C(=O)Nc2nc3ccccc3[nH]2)c2ccccc2c1=O`, the Potency is reported as active: 20 µM. For `O=C(O)c1cc(-c2ccc(-c3ccc(F)cc3)o2)nc2ccccc12`, the Potency was inconclusive [inhibitor, partial curve]. In the case of `C[C@]12CCC3c4ccc(OCC(=O)O)cc4CCC3C1CCC2=O` (some centres undefined), the Potency is reported as “inactive”. In the case of `COc1cccc(NC(=O)CSc2c3c(nc4ccccc24)CCCC3)c1`, the Potency is reported as inconclusive [activator, single point].
